# Assay results reported in paper PMC5836133.
# The other results are listed elsewhere or left out. At the low end of the ranking, values are background and their order means little.
# Tested on: T1, GST-NbGlk1(82-244)
# T1 sequence: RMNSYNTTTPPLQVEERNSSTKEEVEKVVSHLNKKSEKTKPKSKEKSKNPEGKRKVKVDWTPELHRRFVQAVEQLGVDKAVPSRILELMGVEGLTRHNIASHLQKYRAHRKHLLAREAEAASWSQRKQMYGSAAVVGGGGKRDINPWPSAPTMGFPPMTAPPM
# Assay: protein-binding microarray;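 also: rank-based score ranging −0.5 to +0.5 with E above 0.45 taken as significant binding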
# Details: NbGlk1 is a Golden2-like transcription factor of Nicotiana benthamiana; high values mean tight binding; most listed sequences are background and not binding sites; double strand, one strand shown
row,Sequence,binding signal [E-score]
1,ACATCAAC,-0.0246
2,AGGCAGAG,0.0424
3,ATCAAATC,0.36
4,AAATCTAG,0.452
5,AAGTCCGA,-0.0569
6,AGTGGGTG,-0.192
7,ACATGCCT,-0.0526
8,ACTTCGAT,0.152
9,AAACGTGG,-0.06
10,ATCCCATG,0.13
11,AGGAAACG,-0.197
12,CACCCGCG,-0.195
13,AATCGGGC,0.192
14,ACAAGGCT,-0.268
15,ATTATGAG,0.0798
16,ACACGACC,-0.148
17,ATGACGCC,-0.259
18,AGGATACT,0.199
19,AATAAGCG,-0.039
20,ATTACTTC,0.179
21,AATCCCGC,0.335
22,ACCCCACC,-0.177
23,AGGAAGGC,-0.271
24,ACTCCATA,-0.00303
25,ATAACAGG,-0.0844

row,Sequence,binding signal [E-score]
1,AGGCCAAA,-0.201
2,ATATTCTC,0.402
3,AGCTGGAA,-0.0711
4,CACTAAAC,-0.0712
5,ACCACTTC,-0.16
6,ATCCACGA,0.28
7,AGCGAGTG,0.00664
8,AAGTTCTC,-0.131
9,ATTAGCTG,0.0421
10,AAAACGAT,0.0892
11,ACCTACCG,-0.0779
12,ATACAGCC,-0.0585
13,AGGCCGGA,-0.0602
14,ACGGATAC,0.261
15,ACCAAATG,0.0403
16,AGAATCGG,0.375
17,ACAGAAGT,-0.0605
18,AGGGATAT,0.353
19,ATGCAGAA,0.16
20,ACCCTGAT,0.0699
21,ACTTCTGG,-0.119
22,ACCACGTC,-0.204
23,CAACGCTC,-0.251
24,AGGGTCAG,-0.165
25,AAACGGTT,-0.148

row,Sequence,binding signal [E-score]
1,CAAAGTGG,-0.114
2,CAGAATAC,0.0173
3,ACCTAACC,-0.0544
4,ATTTTGAG,0.194
5,ACAATAGG,0.0112
6,ACATTAGT,-0.0066
7,AATTTTTG,0.0437
8,AAGATGCG,-0.00465
9,CACTTACA,0.0237
10,AATGGGTG,0.0229
11,ACTCCAGT,-0.142
12,ATGCCCCG,-0.025
13,CAACGAAG,-0.0482
14,ACCACTGA,0.0673
15,AGACCTAC,-0.133
16,AGGTACAG,-0.259
17,CACGGAGC,-0.182
18,CAGCCCTC,-0.207
19,AAGTTAGG,0.0264
20,ACCTGCGG,-0.226
21,AGTATCGG,0.202
22,ATAGTTAA,0.0626
23,ACATCGAG,-0.0166
24,AAGGAAAC,-0.129
25,ACTAGATC,0.245

row,Sequence,binding signal [E-score]
1,ACAAGCAA,0.021
2,ACTGAATA,0.204
3,CAAGAGGG,-0.222
4,AGCCGTTA,-0.144
5,AGTAACAA,-0.0684
6,AGTCTGAG,0.013
7,ACTCTAAC,0.00428
8,AGGCCCAC,-0.268
9,ACTGCACG,-0.0439
10,AGCCATGA,-0.0784
11,ACCTTCGC,-0.192
12,AATGTCCG,-0.189
13,ACTAATTC,0.133
14,AATGTCCT,-0.121
15,ACGCTCAG,-0.19
16,ACATAGCT,-0.0625
17,AAATACAA,0.125
18,AGCAACTA,0.0222
19,AGTTAATC,-0.128
20,ATGACATC,0.0226
21,CACATGGC,-0.22
22,ATTGGAGC,-0.0235
23,AAGACTGG,-0.0231
24,AGTAATCA,0.322
25,ACCGAGTC,-0.216

row,Sequence,binding signal [E-score]
1,CACAATTA,0.0986
2,AAGCGCGA,0.136
3,ACGCAACC,0.0273
4,AGTGAACC,-0.119
5,ATGAAGTA,-0.175
6,AATTTCAA,0.246
7,AGGTTTAA,-0.143
8,AACGAAAT,0.344
9,AGCATCCC,-0.214
10,AGATGAAT,0.0627
11,AGTCATAC,0.0218
12,AGAAAGAC,-0.0251
13,AAGTCTTG,-0.143
14,AAGATAGA,0.0566
15,CAAGGGCG,-0.163
16,ATCGTGTG,0.108
17,CACCTTAC,-0.0494
18,AATATTTA,0.216
19,CACGGTGG,-0.137
20,AAAGACGT,0.0182
21,AATGAAGC,-0.12
22,AAATTCTA,0.245
23,CAAGTCCC,-0.118
24,CACGCCGA,-0.00601
25,ACGTCCGA,-0.236

row,Sequence,binding signal [E-score]
1,ATGTAGCA,-0.0397
2,AAACCGGC,0.0103
3,ACCTGCGT,-0.171
4,AGCATGGC,-0.257
5,ATCCTGAC,0.301
6,CAGCGTCA,-0.0568
7,AAACGCAG,-0.0137
8,AAAGATGC,-0.0465
9,AAGGCTAT,-0.21
10,ACGCGGCC,-0.0956
11,AAGATTAT,0.288
12,AACTACAG,-0.19
13,AATCCTTC,0.265
14,ATAATAGG,0.0321
15,ATCTATGA,0.247
16,ATGCAAAA,0.0832
17,CACTAATA,0.151
18,AATCAACC,0.0711
19,AAGAAACA,0.00182
20,AAATCCCT,0.354
21,AACTGCGC,-0.0355
22,ATTCAGTC,0.0765
23,ATCGAAAG,0.0949
24,AGTTGCTC,-0.228
25,AGTTCCGC,-0.183

row,Sequence,binding signal [E-score]
1,ATGACAAG,-0.0343
2,ACCCAATA,-0.0334
3,AAGGGAAC,-0.236
4,AGCCCCAC,-0.214
5,AACGAATC,0.367
6,AAACGTGC,-0.136
7,AAGCCTCG,-0.183
8,AAAGGCGA,-0.109
9,ACTCAACA,0.00303
10,ACCAATAT,0.204
11,ATTATGCA,0.135
12,AGCTACAC,0.0267
13,AAGCTTCC,-0.068
14,AGGACTGG,-0.158
15,AGCAGGCA,-0.204
16,ACCGGGTG,-0.12
17,ACCTTGAC,-0.0796
18,AGAGTCTA,-0.258
19,ACCCAGAC,-0.0566
20,AAATGCTA,0.0497
21,AAAAGCGA,0.0794
22,ATTACTGC,0.0977
23,CAGAACGA,-0.145
24,ACGAGTCT,-0.176
25,AGCAAGCA,-0.161

row,Sequence,binding signal [E-score]
1,AAACATGT,-0.0778
2,ATTTCTTC,0.205
3,ACGGAGAA,0.193
4,AGCTGTCC,-0.157
5,AGCCATGG,-0.235
6,CAGACAGG,-0.212
7,AGAGCATC,-0.0784
8,ACAACGCC,-0.127
9,AAAGGCGG,-0.188
10,AGGGACTG,-0.161
11,AGCGACCG,-0.238
12,CAGACCCG,-0.213
13,AGTTTGAT,0.123
14,AGGACGCG,-0.179
15,ATAGGTTG,-0.0411
16,CAACCTAC,-0.199
17,ACTCGGCG,-0.149
18,ACAGAGGG,-0.253
19,AGCACAAT,0.0349
20,ACGGTCCT,-0.3
21,ATGAGTCA,-0.0918
22,ATCCCACA,0.234
23,CACGGTAG,-0.154
24,AATGGTGT,0.013
25,ATGGCGGA,-0.126

row,Sequence,binding signal [E-score]
1,AAACGTCC,-0.17
2,ACCGTTAC,-0.0877
3,AGGGCGCA,-0.191
4,AGATCTAC,0.347
5,ACTTGGTG,-0.178
6,CACAGTGA,-0.0993
7,AGAACGCG,-0.126
8,AAACATTA,0.106
9,AGCCAAGC,-0.306
10,ATTAACTC,-0.086
11,AGGCCTTG,-0.129
12,ATTTGAAA,0.195
13,ATCGCTAG,0.0832
14,AATCACTA,0.234
15,ATCTCACC,0.317
16,AACAGTAG,-0.0728
17,ACTAGGGC,-0.14
18,AGGTAGTA,-0.0212
19,AGTCTTCA,0.00595
